Publication PMC4336329 (PLoS ONE, 2015)
The whole screen tested about 310,000 compounds, of which about 14,000 (4.5%) showed an effect of 50% or more. The effect is printed as a negative number. This is one part of the list.

Biological target: human ether-à-go-go-related gene (hERG) potassium channel (human, UniProt Q12809)
Assay: primary screen, population patch clamp on CHO cells stably expressing hERG
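Note: peak tail current of the secondary pulse compared with the same well before compound.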

human ether-à-go-go-related gene (hERG) potassium channel, sequence (Q12809 whole entry, looked up): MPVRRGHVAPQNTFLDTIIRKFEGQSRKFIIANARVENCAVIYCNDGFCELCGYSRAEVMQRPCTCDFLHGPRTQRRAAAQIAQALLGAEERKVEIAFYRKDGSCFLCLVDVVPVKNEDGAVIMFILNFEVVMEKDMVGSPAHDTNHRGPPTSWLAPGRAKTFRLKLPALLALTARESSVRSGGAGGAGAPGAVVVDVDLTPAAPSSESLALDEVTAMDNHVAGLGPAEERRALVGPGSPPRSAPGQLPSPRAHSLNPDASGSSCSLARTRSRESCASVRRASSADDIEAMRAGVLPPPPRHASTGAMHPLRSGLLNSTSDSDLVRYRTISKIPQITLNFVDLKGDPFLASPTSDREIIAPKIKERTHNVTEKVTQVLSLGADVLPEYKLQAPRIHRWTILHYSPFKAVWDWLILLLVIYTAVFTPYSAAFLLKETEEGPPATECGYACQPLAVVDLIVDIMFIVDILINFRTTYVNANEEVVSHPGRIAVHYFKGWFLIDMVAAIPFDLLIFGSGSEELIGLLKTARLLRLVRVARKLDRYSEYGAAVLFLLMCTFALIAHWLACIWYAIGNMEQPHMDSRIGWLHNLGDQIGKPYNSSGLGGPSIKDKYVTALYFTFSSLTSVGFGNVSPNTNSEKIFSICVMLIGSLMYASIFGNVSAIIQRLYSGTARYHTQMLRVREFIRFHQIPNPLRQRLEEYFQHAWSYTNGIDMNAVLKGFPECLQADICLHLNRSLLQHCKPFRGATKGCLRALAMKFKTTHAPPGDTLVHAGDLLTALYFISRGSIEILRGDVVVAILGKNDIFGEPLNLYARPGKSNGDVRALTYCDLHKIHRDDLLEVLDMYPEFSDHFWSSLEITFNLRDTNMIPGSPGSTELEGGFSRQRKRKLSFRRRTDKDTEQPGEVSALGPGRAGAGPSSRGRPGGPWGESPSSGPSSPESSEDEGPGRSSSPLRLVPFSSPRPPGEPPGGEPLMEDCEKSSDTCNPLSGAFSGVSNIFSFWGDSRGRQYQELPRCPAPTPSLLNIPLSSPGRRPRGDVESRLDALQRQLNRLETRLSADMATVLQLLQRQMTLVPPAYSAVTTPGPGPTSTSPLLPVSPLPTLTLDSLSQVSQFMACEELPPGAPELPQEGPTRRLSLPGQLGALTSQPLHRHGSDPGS

| SMILES | hERG current change (%, negative = inhibition) at 10uM |
| --- | --- |
| CC1CCN(S(=O)(=O)c2ccc(C(=O)N3CCN(c4ccccc4F)CC3)cc2)CC1 | 13.1% |
| COc1ccc(-c2cc(-c3ccccc3)nc(Cl)n2)cc1OC | 18.2% |
| Nc1c(C(=O)NCc2cccnc2)sc(=S)n1-c1ccccc1 | -6.5% |
| COc1ccc(CC(=O)O/N=C(\N)Cc2cccc3ccccc23)cc1 | 13.4% |
| Cc1cccc(-c2noc(CN(C)C(=O)c3ccoc3C)n2)c1 | 11.6% |
| O=C(O)c1cc(S(=O)(=O)Nc2cccc(Oc3ccccc3)c2)ccc1Br | 18.7% |
| COc1ccc(-c2csc(NC(=O)C3CCN(C(=O)c4ccc(F)cc4)CC3)n2)cc1OC | -13.8% |
| Cc1c(C(=O)N2CCN(Cc3cccs3)CC2)oc2ccccc12 | -28.9% |
| CC(C)c1cc(=O)n2[nH]c(N)nc2n1 | 7.45% |
| Cc1ccc(NS(=O)(=O)c2ccccc2)c2c1CC(C)(C)O2 | -2.88% |
| O=C(O)CCN1CC2([N+](=O)[O-])CC=C(OCCO)C([N+](=O)[O-])(C1)C2 (centres unmarked) | 20.1% |
| NC(=O)c1c(/N=C/c2cccs2)sc2c1CCCC2 | 5.92% |
| FC(F)(F)c1cc(NC2CCCCC2)ccn1 | 9.54% |
| CC(C)(C)C(=O)Nc1ccccc1C(=O)Nc1cccnc1 | -6.18% |
| CS(=O)(=O)N(CC(=O)N1CCN(Cc2ccccc2)CC1)c1ccccc1F | -5.93% |
| c1ccc(-c2noc(-c3ccc4c(c3)OCO4)n2)cc1 | -3.33% |
| CCOCC(=O)Nc1nc2ccc(OC)cc2s1 | -3.59% |
| CC(=O)N1N=C(c2cccc([N+](=O)[O-])c2)OC1(C)CC(=O)Nc1ccccc1 (centres unmarked) | -12% |
| Cc1ccc(S(=O)(=O)N2CCN(C(=O)COC(=O)c3ccc(C(C)(C)C)cc3)CC2)c(C)c1 | 1.77% |
| COC(=O)C1=C(c2cc3ccccc3s2)C[C@@H]2CC[C@H]1N2C(=O)N1CCOCC1 | -13.7% |
| O=C(Nc1ccc2c(c1)OCCO2)c1cnc2ccccn2c1=O | 1.46% |
| CC(C)(C)c1cc(C(=O)NCc2ccccc2)ccn1 | 8.64% |
| CCOc1ccc(CCNC(=O)c2cccc(S(=O)(=O)N3CC(C)OC(C)C3)c2)cc1OCC (centres unmarked) | -27.3% |

| SMILES | hERG current change (%, negative = inhibition) at 10uM |
| --- | --- |
| CCC(C)NC(=O)COc1ccccc1[N+](=O)[O-] (centres unmarked) | 16% |
| CCOC(=O)/C=C1\SCC(=O)N1CC(=O)N1CCOCC1 | 24.8% |
| O=C(O)c1ccccc1C(=O)NCc1ccc2c(c1)OCO2 | 11% |
| CC1CCc2c(sc(NC(=O)c3ccc(-c4ccccc4[N+](=O)[O-])o3)c2C#N)C1 (centres unmarked) | 18.6% |
| CCn1c(SCc2nc3cc(OC)c(OC)cc3c(=O)[nH]2)nc2ccccc21 | 12.2% |
| O=S(=O)(NCCSc1nnnn1-c1ccccc1)c1cccs1 | -18.9% |
| COc1nc(OC)nc(N2CCC(C(=O)Nc3cccc4c3CCCC4)CC2)n1 | -2.3% |
| COc1ccc(N2CC(C(=O)O)CC2=O)cc1 (centres unmarked) | 21.1% |
| CCN(CC)S(=O)(=O)c1cccc(NC(=O)c2cc(=O)[nH]c3ccccc23)c1 | -26% |
| CCCn1c(=O)[nH]c(=O)c2c1nc(-c1ccc(OC(F)F)c(OC)c1)n2CCOC | -50.5% |
| CC(N=C1CC(C)(C)CC(=O)/C1=C(/O)CCCN1C(=O)c2ccccc2C1=O)C(=O)O (centres unmarked) | 16.1% |
| NC(=O)C1CCN(c2nc(-c3ccccc3)nc3ccccc23)CC1 | -56% |
| Cc1ccc(CN2CCN(Cc3cn(C)nc3C)CC2CCO)o1 (centres unmarked) | 12.4% |
| CN(C(=O)c1cnccn1)c1c(N)n(Cc2ccccc2)c(=O)[nH]c1=O | 3.69% |
| Cc1ccsc1C(=O)N1CCN(c2ncccn2)CC1 | 7.76% |
| CN1CCN(c2ccc(NC(=O)c3ccc4c(c3)[nH]c(=O)n4Cc3ccc(F)cc3)cc2)CC1 | -1.93% |
| Cc1ccccc1OCC(=O)Nc1ccc(C)c(S(=O)(=O)N2CCCCCC2)c1 | -15.4% |
| CCn1c(SCC(=O)Nc2cccc(NC(C)=O)c2)nc2c([nH]c3ccccc32)c1=O | -1.95% |
| COc1cc(C2Nc3ccccc3NC3=C2C(=O)CC(C)(C)C3)cc(OC)c1OC(C)=O (centres unmarked) | 19.3% |
| COCCNC(=O)Cn1cc(C=C2C(=O)NC(=O)NC2=O)c2ccccc21 | 18.1% |
| O=C(N/N=C/c1cccc(NC(=O)c2ccc(Cl)cc2)c1)c1ccc(O)cc1 | 9.71% |
| Cc1c(Cl)cccc1NC(=O)Nc1ccc(C(N)=O)cc1 | 13% |
| O=C(Nc1ccc(-n2ccnc2P(=O)(O)c2ccccc2)cc1)c1ccccc1Br | -14.9% |

| SMILES | hERG current change (%, negative = inhibition) at 10uM |
| --- | --- |
| COc1cc(C(=O)Nc2cccc(-c3cn4cccnc4n3)c2)cc(OC)c1OC | -1.35% |
| CCN(CC(=O)Nc1ccc(OC)cc1)CC(=O)Nc1cccc(C#N)c1 | 0.389% |
| CCN(CC)S(=O)(=O)c1ccc(N)cc1 | 8.97% |
| O=C(/C=C/c1cnc2ccccc2n1)NC12CC3CC(CC(C3)C1)C2 | -13.1% |
| O=C(CN1CCN(Cc2ccccc2)CC1)c1ccccc1 | 1.35% |
| CCCCn1c(O)c(C(C)=NCCN2CCOCC2)c(=O)[nH]c1=O | -14.8% |
| COc1ccccc1NS(=O)(=O)c1ccccc1C#N | 11.2% |
| CCCOC(=O)Oc1ccc2c(=O)c(Oc3cc(C)cc(C)c3)coc2c1 | -0.543% |
| COc1cc(OC)cc(C(=O)Nc2ccccc2NC(C)=O)c1 | 15.6% |
| C=CCNC(=O)c1cc(=O)c2ccccc2o1 | 6.24% |
| CCOC(=O)C1CCCN(S(=O)(=O)c2ccc3c(c2)NC(=O)CO3)C1 (centres unmarked) | -1.47% |
| CCOC(=O)Cc1nc(-c2ccccc2)n[nH]1 | 20% |
| CC1(C)CNC(=O)c2sc(NC(=O)c3ccccc3)nc2C1 | 13.3% |
| CC1CCCC/C1=N/Nc1ccc([N+](=O)[O-])cc1[N+](=O)[O-] (centres unmarked) | -1.11% |
| CCC(C)NC(=O)[C@@H]1CSC2c3ccccc3C(=O)N21 (some centres unmarked) | -2.29% |
| COc1cccc(OC)c1C(=O)NC(=O)Nc1c(F)cc(F)cc1F | 8.36% |
| O=C(NC1=NCCS1)C1CCN(S(=O)(=O)c2ccccc2C(F)(F)F)CC1 | 6.92% |
| CCN(CC)CCOC(=O)C1(c2ccccc2)CCOCC1.Cl | 10.5% |
| O=C(COC(=O)Cn1[nH]c(=O)c2ccccc2c1=O)Nc1c(Cl)cccc1C(F)(F)F | -3.08% |
| Cc1nn(C(=O)c2cccnc2)c(C)c1Sc1ccc(Br)cc1 | -16.3% |
| CCOC(=O)Nc1nc2ccccc2s1 | 7.09% |
| O=C(O)C1CCC(CN(Cc2cccc(Br)c2)C(=S)Nc2ccccc2F)CC1 (centres unmarked) | 28.8% |
| O=C(Cn1[nH]c(=O)c2ccccc2c1=O)NNC(=O)c1ccccc1 | 5.57% |

| SMILES | hERG current change (%, negative = inhibition) at 10uM |
| --- | --- |
| CC(C)c1cc(C(=O)N/N=C/c2ccoc2)cs1 | 0.319% |
| O=C(NCc1ccc2c(c1)OCO2)C1CCCN1C(=O)Nc1cccc(F)c1 (centres unmarked) | -30.2% |
| O=C(COC(=O)c1ccccc1SCC(=O)N1CCCC1)Nc1ccccc1 | -5.59% |
| CCOc1ccc(S(=O)(=O)NCCc2cn3ccccc3n2)cc1 | -11% |
| CC(C)C1COS(=O)(=O)NC1CC(=O)SC(C)(C)C (centres unmarked) | 5.24% |
| C/C(=N\NC(=O)c1cccc(S(=O)(=O)N2CCCC2)c1)c1ccc(C)cc1 | -50.4% |
| O=C(CCCN1C(=O)/C(=C\c2cccs2)SC1=S)Nc1ccccn1 | 28.1% |
| CC(=O)CSc1ncnc2nc[nH]c12 | 13% |
| CCN1C(=O)/C(=C/c2nc3ccccc3c(=O)n2-c2ccccc2)c2ccccc21 | 1.52% |
| COc1ccc(-c2ocnc2C(=O)Nc2ccc(N3CCOCC3)cc2N2CCOCC2)cc1OC | -30.5% |
| Cc1ccc(C(=O)OCC(=O)NNC(=O)c2ccc([N+](=O)[O-])cc2)o1 | 2.78% |
| CCOc1ccc(OC(=O)c2cccc(S(=O)(=O)N3CCN(C)CC3)c2)cc1 | -12.6% |
| O=C(CN1C(=O)c2cccnc2Oc2ccc(Cl)cc21)NCCCc1ccccc1 | -4.2% |
| COc1cc(OC)cc(N2CC(C)(C)C2=O)c1 | 18% |
| COc1cc(/C=C2\SC(=S)N(NS(=O)(=O)c3ccccc3)C2=O)cc(OC)c1OC | 1.93% |
| COc1ccc(C(=O)CCC(=O)Nc2cccc(Cl)c2)cc1 | 6.16% |
| COc1ccccc1N1CCN(c2cc(=O)n(-c3ccc(Br)cc3)c(=O)[nH]2)CC1 | 0.906% |
| Cc1ccc(C(=O)OCC(=O)N2CCOCC2)c(C)c1 | 21.8% |
| CC1CCCCC1NC(=O)C1CCN(S(=O)(=O)c2cccc3nsnc23)CC1 (centres unmarked) | 1.71% |
| CCOc1ccc(-c2cnc3n2CCC3)cc1.Cl | -18.3% |
